# Assay results as given in PMC12040169 (PLOS Biology, 2025).
# The list shows a part of the results.
# Test system: T1, C. trachomatis L2/434/Bu expressing GFP (CTL2-GFP)
# T1 construct: L2/434/Bu GFP intracellular growth in HeLa cells
# Set-up: species or system HeLa; C. trachomatis total inclusion area by high-content imaging, normalised to DMSO
# Details: total inclusion area; 28.5 h, 10 µM; inhibitor
# Method in brief: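 High-content images of fixed, Hoechst-stained infected cultures supply inclusion area and count (growth) plus nuclei number (viability), complementing bulk GFP/resorufin fluorescence. MIC determination is unchanged from the primary assay.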
row,Compound,% of control remaining
1,COc1ccccc1NC(=O)CNC(=O)c1ccc([N+](=O)[O-])cc1 [CBK268657],112.601
2,C[C@H](Nc1cncc(-c2ccc(F)cc2F)n1)c1ccccc1 [CBK065684],92.3285
3,Nc1ccc(-c2nc(-c3ccccc3)c3cc(-c4ccc5nc(-c6ccc(N)cc6)nc(-c6ccccc6)c5c4)ccc3n2)cc1 [CBK261152],67.2524
4,Sc1nnc(CSCc2ccccc2Cl)n1-c1ccccc1 [CBK265219],105.099
5,Cc1nnnn1-c1cc(NC(=O)NCCCn2ccnc2)ccc1F [CBK305349],38.4227
6,COc1ccccc1CC(=O)NCc1nc(-c2cccc(C)c2)no1 [CBK269336],80.3062
7,Cn1c(COc2cccc3cccnc23)nnc1SCC(=O)O [CBK300505],111.453
8,COc1ccc(C)cc1S(=O)(=O)N(CC(=O)Nc1ccccc1C)c1ccc(Cl)cc1 [CBK267995],96.2032
9,Cc1ccnc2nc(C(=O)Nc3ccc4c(c3)CCC4)nn12 [CBK295194],110.781
10,CCCc1cc(C2CCCCCN2C(=O)c2cccnc2)no1 (stereo not drawn) [CBK282987],118.154
11,COc1ccc2c(CC(=O)Nc3cccc(-c4csc(C)n4)c3)coc2c1 [CBK295149],108.968
12,O=S(=O)(c1ccccc1)c1cn2ccnc2c(N2CCNCC2)n1 [CBK200021T],95.8339
13,CC(C)c1ccc(S(=O)(=O)N(C)Cc2cccnc2)cc1 [CBK043582],82.7542
14,CC(=O)Nc1ccc(C(=O)N2CCC(c3cccc(Cc4ccccc4Cl)n3)CC2)cc1 [CBK286111],127.121
15,CN(C)CCNc1nccc2sc(S(=O)(=O)NCCC3=CCCCC3)cc12 [CBK038244C],62.1885
16,Cc1nccn1CCCn1cncc1-c1ccc2c(c1)CCCN2C [CBK282962],81.1327
17,COc1ccc(C)cc1S(=O)(=O)N(C)CC(=O)O [CBK267863],120.256
18,COc1cc(C2c3c(oc4ccc(Cl)cc4c3=O)C(=O)N2CC2CCCO2)ccc1OCc1ccccc1 (stereo not drawn) [CBK267581],95.219
19,CC(=O)Nc1ccc(NC(=O)C2COc3ccccc3O2)cc1C (stereo not drawn) [CBK269898],91.474
20,Fc1ccccc1CSc1nc2ncccc2[nH]1 [CBK287883],83.272
21,CCCCN(C)C(=O)Cn1nc(C)c2ccccc2c1=O [CBK305050],87.476
22,CCC(CO)NC(=O)c1cnc(-c2cccc(C)c2)c(-c2ccc(OC)cc2)c1 (stereo not drawn) [CBK037460],142.973
23,COc1ccccc1NC(=O)CSc1nnc(-c2ccncc2)o1 [CBK287743],73.5169
24,Cn1nc(C(C)(C)C)cc1C(=O)N1CCNC(=O)C1Cc1ccc(-c2cccs2)cc1 (stereo not drawn) [CBK285810],115.412
25,O=C(Nc1ccccc1C(=O)O)c1cccc(-n2cnnc2)c1 [CBK269769],94.7679
26,Cc1[nH]c2ccccc2c1/C=C1/SC(=S)N(CC(=O)O)C1=O [CBK262220],87.1433

row,Compound,% of control remaining
1,COc1ccc(CN2CC[C@@H]3[C@H](C2)[C@@H](c2ccc(F)cc2)CN3C(=O)c2ccccc2)cc1 [CBK286290],69.4968
2,CC1(C)CC(=O)c2sc(NC(=O)c3ccccc3)nc2C1 [CBK287318],80.3152
3,COc1ccc2cc(CNc3ccc(F)c([N+](=O)[O-])c3)c(Cl)nc2c1 [CBK295133],116.263
4,C1=NC2C(COCc3ccccc3)CCC2N1c1ccccc1 (stereo not drawn) [CBK010679],79.4977
5,O=C(O)c1cc(-c2ccc3c(c2)OCCO3)nc2ccccc12 [CBK262422],105.302
6,COc1ccccc1CN(CCCn1ccnc1)Cc1ccco1 [CBK283116],75.1225
7,CCN(CC)CCNc1nc2c(=O)[nH]c(=O)n(C)c2[nH]1 [CBK287918],70.6
8,CCOc1cc(C)c(C(C)C)cc1S(=O)(=O)NCCN1CCOCC1 [CBK268727],122.506
9,COc1cc2c(cc1OC)C(CCN1CCN(c3ccc(Cl)cc3)CC1)OCC(C)(C)C2 (stereo not drawn) [CBK024051C],57.4013
10,CC(=O)Nc1ccc(S(=O)(=O)Nc2ccc(C(=O)Nc3ccc(F)cc3)cc2)cc1 [CBK050401],23.6801
11,CCN1CCN(c2ccc(NS(=O)(=O)c3ccccc3)c3ccccc23)CC1 [CBK200011C],99.4776
12,CCN(CC)C(=O)C1CCCN(C(=O)NCc2ccc(C#N)cc2)C1 (stereo not drawn) [CBK156132],86.7713
13,O=C1c2ccccc2C(=O)N1CCOc1nccnc1-c1ccsc1 [CBK106760],90.6527
14,Clc1ccc(CSc2cccs2)cn1 [CBK002639],99.7629
15,COc1ccc2cc(C(=O)NCCCc3ccccn3)n(C)c2c1 [CBK282545],129.895
16,O=C(N[C@H]1CCN2C(=O)c3cc(-c4ccccc4F)ccc3NC(=O)[C@H]12)c1cnccn1 [CBK289274],102.808
17,CC(C)(C)OC(=O)N1CCCN(Cc2nc(-c3cccnc3)no2)CC1 [CBK305309],90.3447
18,OCC1OC(n2cnc3c(Oc4ccccc4)ncnc32)CC1O (stereo not drawn) [CBK201181],87.9814
19,O=C(Nn1cnnc1)c1ccccc1F [CBK027603],123.483
20,CC1=NN(c2ccc(C)cc2)C(=O)/C1=C\Nc1ccc(S(=O)(=O)Nc2nc(C)cc(C)n2)cc1 [CBK262398],24.9934
21,O=C(O)c1cccc(NS(=O)(=O)c2ccc(OC(F)(F)F)cc2)c1 [CBK155077],84.0496
22,O=C(Cc1ccc(F)cc1)N1CCC(n2cnc3cccnc32)CC1 [CBK283574],75.8089
23,c1ccc2nc(N3CCCC3)c(Sc3nc[nH]n3)nc2c1 [CBK115265],85.8904
24,OC(CN1CCC(O)(c2ccccc2F)CC1)c1ccc(Cl)cc1 (stereo not drawn) [CBK283312],93.7426
25,CC(C)n1c(=O)oc2cc(S(=O)(=O)NC(c3ccccc3)c3ccccc3)ccc21 [CBK286350],79.8552
